According to the supplement of paper PMC6089552:
Hit rate of the full screen: of about 3,200 compounds, about 300 (9.4%) showed activity. The entries are a selection whose mix differs from that of the whole data set.

Test system: A673/TR/shEF
Assay: cell viability (LOESS-normalised, relative to median of negative controls) (log2 ratio); higher = more viable cells (less compound effect), active = hit call of the paper (over 3 MAD below the median)
Details: treatment time: 72 h
In short: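 A673/TR/shEF Ewing sarcoma cells (1,500 per well, 384-well plates) were grown with or without doxycycline to induce EWS-FLI1 shRNA knockdown, starting 24 h before compounds. Library compounds at two or more concentrations, with DMSO controls, were added for three days. Cell viability was read by CellTiter-Glo luminescence on an Envision reader, then LOESS-corrected per plate, divided by the median of negative controls and log2-transformed. Hits were wells at least three median absolute deviations from the median of all screened wells.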

[1] = 0.25 µM, library screen: screen1, EWS-FLI1 expression: high (no doxycycline)
[2] = 0.25 µM, library screen: screen1, EWS-FLI1 expression: low (doxycycline-induced shRNA knockdown)
[3] = 2.5 µM, library screen: screen1, EWS-FLI1 expression: high (no doxycycline)
[4] = 2.5 µM, library screen: screen1, EWS-FLI1 expression: low (doxycycline-induced shRNA knockdown)
[5] = 0.25 µM, library screen: screen2, EWS-FLI1 expression: high (no doxycycline)
[6] = 0.25 µM, library screen: screen2, EWS-FLI1 expression: low (doxycycline-induced shRNA knockdown)
[7] = 2.5 µM, library screen: screen2, EWS-FLI1 expression: high (no doxycycline)
[8] = 2.5 µM, library screen: screen2, EWS-FLI1 expression: low (doxycycline-induced shRNA knockdown)
[9] = 25 µM, library screen: screen2, EWS-FLI1 expression: high (no doxycycline)

Measured: cell viability (log2)

CN1CCCCC1c1ccc(-c2cccnc2)nc1 (stereo not drawn)
inactive: [1] 0.0627 | [2] 0.00582 | [3] 0.21 | [4] 0.148

C[C@H]1CCC/C=C/[C@@H]2C[C@H](O)C[C@H]2[C@H](O)/C=C/C(=O)O1
active: [5] -0.127 | [6] -0.561 | [7] -3.76 | [8] -3.56

CC(N)[C@H](O)c1ccc(O)c(O)c1 (stereo partly drawn)
inactive: [5] 0.189 | [6] 0.0295 | [7] 0.0292 | [8] 0.129

Cc1ncc(CNC(=O)N(CCCl)N=O)c(N)n1
inactive: [1] 0.142 | [2] 0.0123 | [5] 0.147 | [6] 0.105 | [3] 0.103 | [4] -0.0366 | [7] 0.145 | [8] 0.0381

COC(=O)[C@]1(C)CC[C@]2(C)CC[C@]3(C)C4=CC=C5C(=CC(=O)C(O)=C5C)[C@]4(C)CC[C@@]3(C)[C@@H]2C1
active: [3] -2.91 | [4] -3.05
inactive: [1] -0.0347 | [2] 0.133

COc1ccc(CN2CCN(Cc3cccc(F)c3)CC2)cc1
inactive: [1] 0.0679 | [2] 0.104 | [3] 0.124 | [4] 0.0696

COc1ccc2[nH]cc(CCN)c2c1
inactive: [1] 0.0364 | [2] 0.00397 | [5] 0.14 | [6] 0.163 | [3] 0.0538 | [4] 0.0996 | [7] 0.179 | [8] 0.0743

CCCCCCCCCc1ccc(O)cc1
inactive: [1] 0.112 | [2] 0.0261 | [3] 0.0682 | [4] -2.86

C[C@@H]([C@H](O)c1ccccc1)N(C)C
inactive: [1] 0.0401 | [2] 0.0644 | [3] -0.0124 | [4] 0.0641

c1ccc2c(c1)cc1ccc3cccc4ccc2c1c34
inactive: [1] 0.0949 | [2] 0.14 | [3] 0.11 | [4] 0.179

Oc1ccc2c3c1O[C@H]1c4[nH]c5c(c4C[C@@]4(O)[C@@H](C2)N(CC2CC2)CC[C@]314)C[C@@]1(O)[C@H]2Cc3ccc(O)c4c3[C@@]1(CCN2CC1CC1)[C@H]5O4
inactive: [5] 0.0981 | [6] 0.136 | [7] 0.129 | [8] 0.0705

CC(C)N1C(=O)c2ccccc2NS1(=O)=O
inactive: [1] 0.113 | [2] 0.086 | [3] 0.0391 | [4] 0.0775

CCCN1C[C@H](CSC)C[C@@H]2c3cccc4[nH]cc(c34)C[C@H]21
inactive: [1] 0.0106 | [2] 0.0697 | [5] 0.243 | [6] 0.105 | [3] 0.0948 | [4] 0.162 | [7] 0.237 | [8] 0.0808

C[C@@H]1CC[C@H]2[C@@H](C)C(=O)O[C@@H]3OC4(C)CC[C@@H]1[C@]32OO4
inactive: [1] 0.0266 | [2] 0.0821 | [3] 0.0419 | [4] -0.14

CCCCc1ccc(C(=O)O)nc1
inactive: [5] 0.23 | [6] 0.102 | [7] 0.0889 | [8] 0.0776

COc1cc(OC)c2c(c1)OC(c1ccc(OC)c(OC)c1)C(O)C2 (stereo not drawn)
inactive: [1] 0.123 | [2] 0.00653 | [3] 0.0915 | [4] 0.0594

CCN(CC)C(=O)N[C@@H]1C[C@@H]2c3cccc4[nH]cc(c34)C[C@H]2N(C)C1
inactive: [5] 0.108 | [6] 0.0251 | [7] 0.215 | [8] -0.0279

Oc1cccc2cccnc12
inactive: [1] 0.142 | [2] 0.121 | [3] 0.105 | [4] 0.189

N#C/C(=C\c1ccc(O)cc1)C(=O)O
inactive: [1] 0.0465 | [2] 0.0904 | [3] 0.146 | [4] 0.0788

CC1=C(O)C(=O)C=C2C1=CC=C1[C@@]2(C)CC[C@@]2(C)[C@@H]3C[C@](C)(C(=O)O)CC[C@]3(C)CC[C@]12C
active: [3] -1.03 | [7] -4.23 | [8] -0.301 | [9] -4.23 | 25 µM, library screen: screen2, EWS-FLI1 expression: low (doxycycline-induced shRNA knockdown) -3.9

C[N+](C)(C)CC#CCOC(=O)Nc1cccc(Cl)c1
inactive: [5] 0.167 | [6] 0.106 | [7] 0.105 | [8] 0.151

CN1C[C@@H](NS(=O)(=O)N(C)C)C[C@@H]2c3cccc4c3c(cn4C)C[C@H]21
inactive: [5] 0.207 | [6] 0.0745 | [7] 0.103 | [8] 0.092

NC(CF)(Cc1cnc[nH]1)C(=O)O (stereo not drawn)
inactive: [5] 0.186 | [6] 0.069 | [7] 0.162 | [8] 0.1

O=C(O)CCCc1ccc(N(CCCl)CCCl)cc1
active: [9] -0.0762

NCC(O)c1cc(O)c(O)cc1F (stereo not drawn)
inactive: [5] 0.233 | [6] 0.183 | [7] 0.0966 | [8] 0.0732

CCS(=O)(=O)Nc1cccc(C(=C2CCCCC2)c2cnc[nH]2)c1
inactive: [5] -0.0183 | [6] -0.0237 | [7] 0.0641 | [8] 0.0508

Cc1[nH]c2ccc(O)cc2c1CCN
inactive: [5] 0.199 | [6] 0.0163 | [7] 0.097 | [8] 0.0824

C=CCN1CCc2cccc3c2[C@H]1Cc1ccc(O)c(O)c1-3
inactive: [5] 0.199 | [6] 0.00481 | [7] 0.133 | [8] 0.0436

COc1nc(NC(C)C)nc(NC(C)C)n1
inactive: [1] -0.00161 | [2] 0.0381 | [3] 0.104 | [4] 0.186

COc1ccc(C(=O)N2CCCC2=O)cc1
inactive: [1] 0.125 | [2] -0.00785 | [5] 0.274 | [6] 0.128 | [3] 0.148 | [4] 0.00726 | [7] 0.115 | [8] 0.0948

CC1(C)C2CC(=O)[C@]3(C)C(CC[C@@]4(C)[C@H](c5ccoc5)OC(=O)[C@H]5O[C@]543)[C@@]2(C)C=C[C@@H]1O (stereo partly drawn)
inactive: [1] 0.0868 | [2] 0.0799 | [3] 0.177 | [4] 0.105
